In ChEMBL document CHEMBL1201862, “PubChem BioAssay data set” (2004):
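Briefly, cells in 96-well plates were exposed to five compound concentrations for 48 h, and endpoints were estimated by linear interpolation. GI50 = concentration required for 50% inhibition of growth.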 The source made the active and inactive calls. Rule as the data show it: active = GI50 up to about 1.1 µM and inactive = higher.

system: NCI-H322M; test: inhibition of tumour cell growth, NCI panel, 48 h

| SMILES | GI50 |
| --- | --- |
| CCOC(=O)NC | inactive: > 100 µM |
| CC1C2(C)OCC(C#N)(C(=N)O2)C1(C#N)C#N (stereo not given) | inactive: > 100 µM |
| Cc1[nH]c(C)c(CN(C)C)c1CN(C)C | inactive: > 100 µM |
| CCCNC(=S)N/N=C1\C(=O)Nc2ccccc21 | inactive: > 100 µM |
| CC(C)(C)c1cc(C(=O)/C=C/c2cc[nH]n2)cc(C(C)(C)C)c1O | inactive: 17 µM |
| COc1cc(/C=C2/C[C@H]3[C@@H]4CC=C5C[C@@H](OC(C)=O)CC[C@]5(C)[C@H]4CC[C@]3(C)NC2=O)cc(OC)c1OC | inactive: 27.4 µM |
| CC#CCCN(CC#N)Cc1ccccc1 | inactive: > 100 µM |
| O=[N+]([O-])c1cccc2nc3ccccc3c(NCCCN3CCOCC3)c12 | active: < 0.0151 µM |
| Nc1nnc(NC(=O)C2=NS(=O)(=O)c3cc(S(N)(=O)=O)c(Cl)cc3N2)[nH]1 | inactive: > 100 µM |
| Cc1cc2c3ccccc3n(C)c2c2c1C(=O)c1ccccc1C2=O | inactive: 15.2 µM |
| Nc1nc(Cl)cc(NCC2(CO)COC2)n1 | inactive: > 100 µM |
| OCC1OC(NC(=S)NCSCCC(F)(F)C(F)(F)C(F)(F)C(F)(F)C(F)(F)C(F)(F)F)C(O)C(O)C1O (stereo not given) | inactive: > 100 µM |
| CC(C)/C(Cl)=N/OC(=O)Nc1ccc(OC(F)(F)F)cc1 | inactive: 16.7 µM |
| CC1(c2ccc(Cl)s2)CC(c2ccc(Cl)s2)=C(C#N)C(=C(C#N)C#N)N1 (stereo not given) | inactive: 15.9 µM |
| c1ccc(C[N+]23C(CC[C@H]2c2ccccc2)CC[C@H]3c2ccccc2)cc1 (stereo not given in full) | inactive: 75.5 µM |
| NNC(=S)N/N=C(\c1nc2ccc(Cl)cc2nc1O)C(O)c1ccc(Cl)cc1Cl (stereo not given) | inactive: > 100 µM |
| O=c1ccc2c(Cl)cccc2o1 | inactive: > 100 µM |
| O=C1CCC[C@H]2O[C@@H](COC(=O)c3ccccc3)C[C@H]2O1 | inactive: > 100 µM |
| CC1CCOc2ccc(cc2)/C=N\c2ccc(cc2)-c2ccc(cc2)/N=C\c2ccc(cc2)OCC1 | inactive: > 100 µM |
| C[N+](C)(C)C1(C(=O)[O-])CC1 | inactive: > 100 µM |
| Cc1cc(-c2nc3cc(F)ccc3s2)ccc1NC(=O)C(C)N (stereo not given) | inactive: 2.86 µM |
| COc1ccc(S(=O)(=O)N(C)CC(=O)O)cc1 | inactive: > 100 µM |
| C=C(CCC/C(C)=C/C=C/[C@]1(C)CCCc2ccoc21)CC(=O)O | inactive: > 100 µM |

| SMILES | GI50 |
| --- | --- |
| COc1cccc(Nc2nc(-c3cccs3)nc3cc(OC)c(OC)cc23)c1 | inactive: 37.7 µM |
| O=[N+]([O-])C(/C=C(\Cl)n1nnc2ccccc21)=C(/Cl)n1nnc2ccccc21 | inactive: > 100 µM |
| Cn1c(=O)c2c(nc3n(Cc4ccccc4)c(=O)c(NCCBr)cn23)n(C)c1=O | inactive: 37.5 µM |
| C/C(=N\NC(N)=O)c1sc(-c2nc(C)c(/C(C)=N/NC(N)=O)s2)nc1C | inactive: > 100 µM |
| O=C(CC(=O)c1ccccc1)C(=O)NC12CC3CC(CC(C3)C1)C2 | inactive: > 100 µM |
| CCSc1nc(N)c2c(-c3ccc(OC)c(OC)c3)c3c(nc2n1)CCCC3 | inactive: > 100 µM |
| CS(=O)(=O)NNS(=O)(=O)c1ccc(F)cc1 | inactive: > 100 µM |
| CC(=O)OCc1cc(=O)n2c([nH]c3ccccc32)c1C#N | inactive: > 100 µM |
| Cc1cc2nnn(C3CCCO3)c2cc1C (stereo not given) | inactive: > 100 µM |
| O=C1c2ccccc2C(=O)c2nc3ccc(Cl)cc3cc21 | inactive: > 100 µM |
| NC(=O)c1nnc2cc(F)ccc2c1N | inactive: > 100 µM |
| COc1ccc(/C=C2\CCS(=O)(=O)c3ccccc3C2=O)cc1OC | inactive: 80.2 µM |
| O=C1NC(N2CCCCC2)=N/C1=C\c1ccc(Cl)cc1 | inactive: 58.6 µM |
| COC(=O)C(Br)C1CCc2ccccc21 (stereo not given) | inactive: > 100 µM |
| Cc1ccc(Nc2nc(C)c(C(=O)CC(=O)C(=O)Nc3ccc(Cl)cc3)s2)cc1 | inactive: > 100 µM |
| COc1ccc(/C=C2\CCC(CCN3CCOCC3)C2=O)cc1 (stereo not given) | inactive: > 100 µM |
| N#CCCn1c(S)nnc1CCC(=O)Nc1ccc(Cl)cc1Cl | inactive: > 100 µM |
| COc1cc2c(c(O)c1OC)C(O)C1CCC(=O)N1C2c1ccc2c(c1)OCO2 (stereo not given) | inactive: > 100 µM |
| Cc1ccc(S(=O)(=O)NC(=O)NC23CC4CC(CC(F)(C4)C2)C3)cc1 | inactive: > 100 µM |
| CC1OC(OC2C(O[C@H]3CC[C@@]4(C)C(=CC[C@H]5[C@@H]6C[C@@H]7O[C@]8(CC[C@H](C)CN8)[C@@H](C)[C@@H]7[C@@]6(C)CC[C@@H]54)C3)OC(CO)C(O)C2OC2OC(CO)C(O)C(O)C2O)C(O)C(O)C1O (stereo not given in full) | inactive: 19.5 µM |
| Cn1c(=O)c2c(nc3n2CC(=O)N3CCCCl)n(C)c1=O | inactive: > 100 µM |
| O=C1C(Cl)N(c2ccccc2)C1c1c[nH]c2ccccc12 (stereo not given) | inactive: > 100 µM |
| Cc1cc([N+](=O)[O-])c(C)c2c1[nH]c1ccc(Cl)cc12 | inactive: > 100 µM |

| SMILES | GI50 |
| --- | --- |
| O=P1(Cc2ccccc2)N(Cc2ccccc2)[C@@H]2CCCC[C@H]2N1Cc1ccccc1 | inactive: 11.5 µM |
| CC(=O)OC1(Sc2ccccc2)CC2[C@H]3COC(C)(C)O[C@H]3CC[C@@]2(C)CC1=O (stereo not given in full) | inactive: 63.7 µM |
| CCOc1ccc(N/C(=C(/C(Cl)=C(/Cl)NC(C)(C)C)[N+](=O)[O-])n2nnc3ccccc32)cc1 | inactive: > 100 µM |
| Cc1cc(S(=O)(=O)NC2=Nc3cccc(F)c3CN2)c(S)cc1Cl | inactive: 53.3 µM |
| CCOC(=O)/C=C1\Nc2ccccc2-n2nnnc21 | inactive: > 100 µM |
| CCOP(=O)(OCC)C1CC(n2cc(C)c(=O)[nH]c2=O)OC1CO (stereo not given) | inactive: > 100 µM |
| [Zn+2][N+]12CCN3CCN4CCN(CC1)[PH]432 (stereo not given) | inactive: > 100 µM |
| Cc1csc2c(=O)n(COCc3ccccc3)c(=O)[nH]c12 | inactive: > 100 µM |
| CCOC(=O)[C@@H]1CCN2CN(c3ccc(OC)cc3)N=C(c3ccccc3)[C@@]12c1ccccc1 | inactive: 37.2 µM |
| Cc1cc(NN)nc2[nH]nc(N)c12 | inactive: > 100 µM |
| CCOC(=O)c1nc2cc(N3CCOCC3)c(F)cc2[nH]c1=O | inactive: > 100 µM |
| COC(=O)C(C)(C)NC(=O)C(Cc1ccccc1)Nc1ncnc2c1ncn2-c1ccc(OC)cc1 (stereo not given) | inactive: 45.1 µM |
| O=C1c2ccccc2C(=O)N1CCn1ccc(NC(c2ccccc2)(c2ccccc2)c2ccccc2)nc1=O | inactive: 25.6 µM |
| CC(C)=Cc1cc(CCC/C(C)=C/Cc2c(O)cc(C)c(C(=O)O)c2O)co1 | inactive: > 100 µM |
| Cn1nc(-c2ccccc2NC(=O)C(F)(F)F)c(=O)n(C)c1=S | inactive: > 100 µM |
| O=C(NC1C=Nc2ccccc2NC1=O)c1ccccc1Cl (stereo not given) | inactive: > 100 µM |
| C=CCON(C(=O)OC(C)(C)C)C(C)(C)C | inactive: > 100 µM |
| Cc1cc(NS(=O)(=O)c2ccc(Nc3c4ccccc4nc4c(C(=O)Nc5ccc(S(=O)(=O)N=C(N)N)cc5)ccc(Cl)c34)cc2)no1 | inactive: 25 µM |
| c1ccc2c(c1)[C@@H]1O[C@@H]1[C@@]13O[C@@]21[C@H]1O[C@H]1c1ccccc13 | inactive: 18.5 µM |
| O=C(C#Cc1ccccc1)N1c2ccccc2CC1c1c[nH]c2ccccc12 (stereo not given) | inactive: 19.7 µM |
| C=C1C(=O)OC2/C=C(\C(=O)O)CC/C=C(\C)CC(OC(=O)/C=C(\C)CC)C12 (stereo not given) | inactive: 16.8 µM |
| Cc1ccc2c(c1)C(=O)/C(=C\c1ccc(Cl)cc1)CCS2(=O)=O | inactive: 4.99 µM |
| Cc1ccc(C)n1-c1ccccc1C1C=Cn2c3c1c(=O)c(OC(C)C)c(OC(C)C)c-3n[nH]c2=O (stereo not given) | inactive: 44.9 µM |

| SMILES | GI50 |
| --- | --- |
| CC1CCCN(CC(O)CN2CCCc3ccccc32)C1 (stereo not given) | inactive: > 100 µM |
| Cc1cc(=O)oc2c3c(ccc12)OC(c1ccc(Br)cc1)CC3=O (stereo not given) | inactive: 17.1 µM |
| O=C(O)CCC(=O)c1ccc2c(c1)C(C(=O)O)CC2 (stereo not given) | inactive: > 100 µM |
| CCOC(=O)c1cccc(NC(=O)CI)c1 | inactive: 3.33 µM |
| NC(=O)N/N=C(\C(=O)C(=O)Nc1ccc(Cl)c(C(F)(F)F)c1)c1nc2ccc(C(=O)c3ccccc3)cc2nc1O | inactive: > 100 µM |
| Cc1cc(/N=C/c2ccc(N(C)C)cc2)n(-c2ccccc2)n1 | inactive: 45.3 µM |
| CC(=O)O[C@H]1CCC(C)=CCC[C@@]2(C)C(CC[C@@H]2[C@@H](C)/C=C/C(C)C)c2ccc(cc2C(=O)O)C1 (stereo not given in full) | inactive: 5.24 µM |
| CCc1n[nH]c(=O)n1-c1ccncc1 | inactive: > 100 µM |
| CC1=CC(=O)c2c(C=O)c(O)c(O)c(C(C)C)c2C1=O | inactive: 60 µM |
| COc1ccc(/C=C2\C[C@H]3[C@@H]4CC=C5C[C@@H](OC(C)=O)CC[C@]5(C)[C@H]4CC[C@]3(C)C2=O)cc1OC | inactive: 74.8 µM |
| N#Cc1ccc(-c2nc3c(N)nc(-c4ccccc4)nc3o2)cc1 | inactive: 51.4 µM |
| CCOc1ccc(/C=C2\N=C(c3ccc([N+](=O)[O-])cc3)OC2=O)cc1 | inactive: > 100 µM |
| Oc1ccccc1/C=N/c1nc2cc3sc(/N=C/c4ccccc4O)nc3cc2s1 | inactive: > 83.9 µM |
| CC[C@H]1CNC(=O)CC1CC(=O)OC (stereo not given in full) | inactive: > 100 µM |
| CCC12C=CCN3CC[C@]4(C(=C(C(=O)OC)[C@@H]1Nc1ccn(C5OC(COC(C)=O)C(OC(C)=O)C5OC(C)=O)c(=O)n1)Nc1ccccc14)C32 (stereo not given in full) | inactive: 5.32 µM |
| CC(=O)OC1CC[C@@]2(C)C(CC[C@]3(C)C2CC=C2[C@@H]4C(C)[C@H](C)CCC4(C)CCC23C)[C@@]1(C)C(=O)O (stereo not given in full) | inactive: 18.7 µM |
| CCCCCC(/C=C/[C@@H]1[C@H]2CC(=O)O[C@H]2C[C@H]1N1CCOCC1)OC1CCCO1 (stereo not given in full) | inactive: > 100 µM |
| COc1ccccc1CCc1cc(OC)c(OC)c(OC)c1 | inactive: > 100 µM |
| COC(=O)CCC(C)[C@H]1CCC2C3C(C[C@H](OC(C)=O)[C@@]21C)[C@@]1(C)CCC2(C[C@H]1C[C@H]3OC(C)=O)OOC1(CCCC1)OO2 (stereo not given in full) | inactive: > 100 µM |
| CCOC(=O)C(=CNC(=S)N/N=C1\C(=O)Nc2ccccc21)C(=O)OCC | inactive: > 100 µM |
| O=c1c(Cc2cccc(Cc3c(O)oc4ccccc4c3=O)c2)c(O)oc2ccccc12 | inactive: > 100 µM |
